The text below walks through data of paper PMC9911399, “Two distinct binding modes provide the RNA-binding protein RbFox with extraordinary sequence specificity”.

T1: RBFOX1 RRM (Homo sapiens, UniProt Q9NWB1 109-208)
T1 sequence: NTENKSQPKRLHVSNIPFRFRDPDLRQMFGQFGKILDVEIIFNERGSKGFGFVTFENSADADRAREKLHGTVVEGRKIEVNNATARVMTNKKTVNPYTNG

B1: GGAUACA (DNA:RNA)
RNA: GGGAGACCGGAAUUCAGAUUGUCCGGAUACAUUAAAUCCCGUCGUAGCCACCA
DNA 1: CAATCTGAATTCCGGTCTCCC
DNA 2: TGGTGGCTACGACGGGATT
B2: UCUUGGC (DNA:RNA)
RNA: B1 RNA with G25U, G26C, A27U, A29G, C30G, A31C
DNA 1: CAATCTGAATTCCGGTCTCCC
DNA 2: TGGTGGCTACGACGGGATT
B3: UGGAAAA (DNA:RNA)
RNA: B1 RNA with G25U, A27G, U28A, C30A
DNA 1: CAATCTGAATTCCGGTCTCCC
DNA 2: TGGTGGCTACGACGGGATT
B4: GAUACAU (DNA:RNA)
RNA: B1 RNA with G26A, A27U, U28A, A29C, C30A, A31U
DNA 1: CAATCTGAATTCCGGTCTCCC
DNA 2: TGGTGGCTACGACGGGATT
B5: ACACAGG (DNA:RNA)
RNA: B1 RNA with G25A, G26C, U28C, C30G, A31G
DNA 1: CAATCTGAATTCCGGTCTCCC
DNA 2: TGGTGGCTACGACGGGATT
B6: UCGUCCC (DNA:RNA)
RNA: B1 RNA with G25U, G26C, A27G, A29C, A31C
DNA 1: CAATCTGAATTCCGGTCTCCC
DNA 2: TGGTGGCTACGACGGGATT
B7: GCAGGUG (DNA:RNA)
RNA: B1 RNA with G26C, U28G, A29G, C30U, A31G
DNA 1: CAATCTGAATTCCGGTCTCCC
DNA 2: TGGTGGCTACGACGGGATT
B8: GGAUGUG (DNA:RNA)
RNA: B1 RNA with A29G, C30U, A31G
DNA 1: CAATCTGAATTCCGGTCTCCC
DNA 2: TGGTGGCTACGACGGGATT
B9: GGAGAUG (DNA:RNA)
RNA: B1 RNA with U28G, C30U, A31G
DNA 1: CAATCTGAATTCCGGTCTCCC
DNA 2: TGGTGGCTACGACGGGATT
B10: CCCGCAU (DNA:RNA)
RNA: GGGAGACCGGAAUUCAGAUUGUCCCCCGCAUUUAAAUCCCGUCGUAGCCACCA
DNA 1: CAATCTGAATTCCGGTCTCCC
DNA 2: TGGTGGCTACGACGGGATT
B11: UGUCGCG (DNA:RNA)
RNA: B1 RNA with G25U, A27U, U28C, A29G, A31G
DNA 1: CAATCTGAATTCCGGTCTCCC
DNA 2: TGGTGGCTACGACGGGATT
B12: CUCGGCU (DNA:RNA)
RNA: B10 RNA with C26U, C29G, A30C
DNA 1: CAATCTGAATTCCGGTCTCCC
DNA 2: TGGTGGCTACGACGGGATT
B13: CCUUUGU (DNA:RNA)
RNA: B10 RNA with C27U, G28U, C29U, A30G
DNA 1: CAATCTGAATTCCGGTCTCCC
DNA 2: TGGTGGCTACGACGGGATT
B14: UGAUAAA (DNA:RNA)
RNA: B1 RNA with G25U, C30A
DNA 1: CAATCTGAATTCCGGTCTCCC
DNA 2: TGGTGGCTACGACGGGATT
B15: CCACUAA (DNA:RNA)
RNA: B10 RNA with C27A, G28C, C29U, U31A
DNA 1: CAATCTGAATTCCGGTCTCCC
DNA 2: TGGTGGCTACGACGGGATT
B16: UAGAGGC (DNA:RNA)
RNA: GGGAGACCGGAAUUCAGAUUGUCCUAGAGGCUUAAAUCCCGUCGUAGCCACCA
DNA 1: CAATCTGAATTCCGGTCTCCC
DNA 2: TGGTGGCTACGACGGGATT
B17: GCCCUGU (DNA:RNA)
RNA: B10 RNA with C25G, G28C, C29U, A30G
DNA 1: CAATCTGAATTCCGGTCTCCC
DNA 2: TGGTGGCTACGACGGGATT
B18: GACUAUC (DNA:RNA)
RNA: B1 RNA with G26A, A27C, C30U, A31C
DNA 1: CAATCTGAATTCCGGTCTCCC
DNA 2: TGGTGGCTACGACGGGATT
B19: ACUGACC (DNA:RNA)
RNA: B10 RNA with C25A, C27U, C29A, A30C, U31C
DNA 1: CAATCTGAATTCCGGTCTCCC
DNA 2: TGGTGGCTACGACGGGATT
B20: GAGACUA (DNA:RNA)
RNA: B16 RNA with U25G, G29C, G30U, C31A
DNA 1: CAATCTGAATTCCGGTCTCCC
DNA 2: TGGTGGCTACGACGGGATT

Where a chain is given by its changes, count along the chain named. Some of the results follow.

In this experiment the target is T1, RBFOX1 RRM. Put plainly: EMSA; HiTS-Eq, 1 nM pool, 10 min; buffer printed only for the single-RNA assays: 10 mM Tris pH 7.5, 150 mM NaCl, 3.4 mM EDTA, 0.001% NP-40, 30 C. Particulars: tags: His6 N-terminal (pET28a); label: 5' 32P. In outline: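 Purified wild-type or mutant RbFox RRM at increasing concentrations was equilibrated with 1 nM of 5′-radiolabelled RNA carrying 7 randomized nucleotides for 10 min in 50 µL. Unbound RNA was separated by 8% native PAGE and sequenced. Relative association constants came from read-count changes of each RNA species compared with the control reaction, normalised to the cognate motif.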
On the technique in general: A gel shift assay detects complexes by their altered migration in electrophoresis.
For the molecule B1, the binding signal was 0.00766 KA relative to UGCAUGU.
In the case of B2 it was 0.0154 KA relative to UGCAUGU; in that of B3, 0.0179 KA relative to UGCAUGU.
In the case of B4 it was 0.00572 KA relative to UGCAUGU; in that of B5, 0.00611 KA relative to UGCAUGU.
For the molecule B6, the binding signal is 0.00735 KA relative to UGCAUGU.
On to B7, for which the binding signal is 0.0171 KA relative to UGCAUGU.
For the molecule B8, the binding signal is 0.0207 KA relative to UGCAUGU.
Take B9: the binding signal is 0.0269 KA relative to UGCAUGU.
To B10 belongs 0.00786 KA relative to UGCAUGU; to B11, 0.0202 KA relative to UGCAUGU.
In the case of B12 it was 0.0125 KA relative to UGCAUGU; in that of B13, 0.0184 KA relative to UGCAUGU.
In the case of B14 it was 0.00742 KA relative to UGCAUGU; in that of B15, 0.00109 KA relative to UGCAUGU; in that of B16, 0.00808 KA relative to UGCAUGU.
As to B17, the binding signal was 0.0153 KA relative to UGCAUGU.
In the case of B18 it was 0.00429 KA relative to UGCAUGU; in that of B19, 0.0049 KA relative to UGCAUGU.
As for B20, the binding signal was 0.00483 KA relative to UGCAUGU.
